SMILES strings stand for the structures. Like-named read-outs stand apart in the source and are kept apart here. Some values that stand alone complete this part of the results.

We go through 1 compound from US7718668B2, “Salts of 6-heterocycle substituted hexahydrophenanthridine derivatives” (Nycomed GmbH, priority 2005, dated 2010).

As usually defined, the melting point is the temperature, or range, at which the solid turns liquid. Turning to `CCOc1cc2c(cc1OC)C(c1ccc(OC)nc1OC)=N[C@@H]1CC[C@@H](O)C[C@H]21` [compound 8, (2R,4aR,10bR)-6-(2,6-Dimethoxy-pyridin-3-yl)-9-ethoxy-8-methoxy-1,2,3,4,4a, 10b-hexahydro-phenanthridin-2-ol], the melting point (ethandisulfonate salt) stood at 233 °C and the melting point (ethansulfonate salt) turned out to be 216 °C.
